The source of these data is publication PMC3101213.

Chains of the proteins cited; added tags and fusions are not shown. Lines headed by an entry give the natural chain unless they say otherwise; changes in a name come on top. Residues count along the entry.
UniProt Q92731: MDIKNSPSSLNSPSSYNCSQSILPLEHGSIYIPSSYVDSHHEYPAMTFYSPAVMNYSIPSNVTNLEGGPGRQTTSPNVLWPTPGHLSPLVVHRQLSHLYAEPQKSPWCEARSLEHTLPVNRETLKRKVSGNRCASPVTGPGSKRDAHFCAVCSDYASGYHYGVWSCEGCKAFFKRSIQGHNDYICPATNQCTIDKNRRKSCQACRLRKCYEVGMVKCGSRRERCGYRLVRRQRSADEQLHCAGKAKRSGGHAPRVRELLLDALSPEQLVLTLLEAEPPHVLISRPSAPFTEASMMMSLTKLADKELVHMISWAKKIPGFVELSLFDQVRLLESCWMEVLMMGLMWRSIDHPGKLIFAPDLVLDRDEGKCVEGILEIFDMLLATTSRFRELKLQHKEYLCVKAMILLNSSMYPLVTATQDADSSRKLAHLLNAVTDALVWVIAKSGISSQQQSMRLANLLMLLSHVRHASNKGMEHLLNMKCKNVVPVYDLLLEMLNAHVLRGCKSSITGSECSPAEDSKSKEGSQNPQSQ
UniProt P03372: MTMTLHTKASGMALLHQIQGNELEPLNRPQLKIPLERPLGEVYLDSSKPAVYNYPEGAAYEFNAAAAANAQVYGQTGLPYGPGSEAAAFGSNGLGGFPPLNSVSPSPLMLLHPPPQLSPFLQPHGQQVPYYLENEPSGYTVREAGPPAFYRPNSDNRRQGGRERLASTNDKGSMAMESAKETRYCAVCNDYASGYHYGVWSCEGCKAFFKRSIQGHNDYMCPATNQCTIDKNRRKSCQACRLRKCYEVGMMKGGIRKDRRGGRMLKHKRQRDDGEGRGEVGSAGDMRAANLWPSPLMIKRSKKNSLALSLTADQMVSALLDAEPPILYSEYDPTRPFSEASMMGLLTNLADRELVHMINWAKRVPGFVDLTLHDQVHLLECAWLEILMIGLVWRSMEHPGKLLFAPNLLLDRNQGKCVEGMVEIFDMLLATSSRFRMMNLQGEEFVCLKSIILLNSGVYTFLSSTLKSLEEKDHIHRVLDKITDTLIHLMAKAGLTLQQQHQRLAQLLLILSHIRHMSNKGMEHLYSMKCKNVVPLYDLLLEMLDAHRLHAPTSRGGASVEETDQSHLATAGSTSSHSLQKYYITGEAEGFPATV
GST-ERα(180–282), containing the DBD: residues 180-282 of P03372

For assay [1], the target named is GST-CTGF(27–187), containing the IGFBP and VWC domains but lacking the signal peptide (human) (UniProt P29279). The assay is described as follows: pull-down; purified GST-CTGF fragments bound to glutathione-Sepharose beads incubated with 35S-labelled in vitro translation products; SDS-PAGE and autoradiography; only the target purified.
Assay [2] concerns the target T1, GST-CTGF(182–349), containing the TSP-1 and CT domains (human) (UniProt P29279).
T1 sequence: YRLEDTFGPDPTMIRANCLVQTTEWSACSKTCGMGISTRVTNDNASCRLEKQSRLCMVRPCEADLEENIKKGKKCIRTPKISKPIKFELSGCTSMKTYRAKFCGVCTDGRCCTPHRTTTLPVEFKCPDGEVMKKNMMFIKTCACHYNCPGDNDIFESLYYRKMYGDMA
Described as above.

The target in assay [3] is FLAG-tagged CTGF (full-length CTGF with FLAG at the carboxyl terminus) (human) (UniProt P29279). The assay is described as follows: co-IP; conditioned medium of CTGF-FLAG-transfected MCF7 cells incubated with MCF7 cell lysates, in the presence of E2; lysis buffer 50 mM Tris pH 8.0, 500 mM NaCl, 0.5% Nonidet P-40, 1 mM DTT; IP with anti-FLAG agarose beads, blot with anti-ERα or anti-ERβ.

Assay [4] has as its target T2, GST-CTGF(182–250), containing the TSP-1 domain (human) (UniProt P29279).
T2 sequence: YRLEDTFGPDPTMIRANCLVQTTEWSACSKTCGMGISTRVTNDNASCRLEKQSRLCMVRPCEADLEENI
The assay is described as follows: pull-down; purified GST-CTGF fragments bound to glutathione-Sepharose beads incubated with 35S-labelled in vitro translation products; SDS-PAGE and autoradiography; only the target purified.

Assay [5] has as its target T3, GST-CTGF(244–349), containing the CT domain (human) (UniProt P29279).
T3 sequence: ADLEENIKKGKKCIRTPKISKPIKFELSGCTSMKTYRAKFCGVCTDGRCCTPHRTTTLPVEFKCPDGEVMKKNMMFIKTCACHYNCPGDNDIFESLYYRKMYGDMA
The assay is described as above.

Assay [6] deals with endogenous CTGF of MCF7 cells (human (endogenous in MCF7)) (UniProt P29279). The assay is described as follows: ELISA; wells coated with mouse anti-human CTGF monoclonal antibody; MCF7 cell lysates together with conditioned media incubated 2 h; detection with rabbit anti-human ERα antibody or normal rabbit serum; absorbance at 415 nm. For orientation: ELISA stands for enzyme-linked immunosorbent assay.

A further assay concerns the target GST-ERβ (UniProt Q92731). Briefly: pull-down; purified GST fusion protein bound to glutathione-Sepharose beads incubated with purified His-fusion proteins; Western blot with anti-His; both purified. Background: In western blotting, separated proteins are transferred to a membrane and probed.
The target of assay [7] is GST-ERα(180–282), containing the DBD (UniProt P03372). The assay is described as above.
A further assay concerns the target GST-ERα (UniProt P03372). Described as above.

Results are given in words; binding and its absence hold for the method and conditions named. For some assays here: In cells and extracts the contact can be indirect. Some binding calls cover weakened binding; strength is not graded here. For some assays here: Tags and fused reporters may be left off the sequences shown.

In the case of “35S-labelled in vitro translated ERβ (from UniProt Q92731 1-530)”, the results for the binding result in assay [1] and in assay [2] were “no binding” and “binds weakly”, respectively.
In the case of “endogenous estrogen receptor β (ERβ) of MCF7 cells (from UniProt Q92731 1-530)”, in assay [3], the binding result is listed as “binds”.
In the case of “35S-labelled in vitro translated ERα (from UniProt P03372 1-595)”, the binding result in [1] was “no binding”; in [4] it was “binds”; in [2] it was “binds”; in [5], “no binding”.
In the case of “endogenous estrogen receptor α (ERα) of MCF7 cells (from UniProt P03372 1-595)”, the binding entry in assay [3] and in [6] was “binds” throughout.
With “His-tagged CTGF (from UniProt P29279 27-349)”, the binding result (with GST-ERβ; in [7]; with GST-ERα) was “binds” each time.

B1: His-tagged Nov (nephroblastoma overexpressed), another CCN family member (protein, UniProt P48745 32-357)
chain: TQRCPPQCPGRCPATPPTCAPGVRAVLDGCSCCLVCARQRGESCSDLEPCDESSGLYCDRSADPSNQTGICTAVEGDNCVFDGVIYRSGEKFQPSCKFQCTCRDGQIGCVPRCQLDVLLPEPNCPAPRKVEVPGECCEKWICGPDEEDSLGGLTLAAYRPEATLGVEVSDSSVNCIEQTTEWTACSKSCGMGFSTRVTNRNRQCEMLKQTRLCMVRPCEQEPEQPTDKKGKKCLRTKKSLKAIHLQFKNCTSLHTYKPRFCGVCSDGRCCTPHNTKTIQAEFQCSPGQIVKKPVMVIGTCTCHTNCPKNNEAFLQELELKTTRGKM
As for B1, the binding result with GST-ERβ and with GST-ERα was “no binding” throughout.
